# Data as given in the antibiotic and cytotoxicity screens of Wong et al. (2023).
# The list shows a part of the results.
# Assays:
# HSkMC = human skeletal muscle cells; assay: cytotoxicity call (relative viability < 0.9); details: 10 µM
# HepG2 = assay: cytotoxicity call (relative viability < 0.9); details: 10 µM
# S. aureus RN4220 = assay: growth inhibition call (relative growth <= 0.2); details: 50 µM
Compound,cytotoxicity call (HSkMC),cytotoxicity call (HepG2),growth inhibition call (S. aureus RN4220)
[O-][NH2+][O-],inactive,inactive,inactive
Cc1noc(C)c1S(=O)(=O)N(C)C[C@H]1Oc2ccc(NC(=O)C3CCCCC3)cc2CC(=O)N([C@@H](C)CO)C[C@H]1C,inactive,inactive,inactive
OC[C@@H]1O[C@H](O)[C@H](O)[C@H](O[C@@H]2O[C@H](CO)[C@H](O)[C@H](O[C@@H]3O[C@H](CO)[C@@H](O)[C@H](O)[C@@H]3O)[C@H]2O)[C@H]1O,inactive,inactive,inactive
COc1ccc(S(=O)(=O)N(C)C[C@H]2OCCCC[C@H](C)Oc3ccc(NC(=O)C4CCCCC4)cc3C(=O)N([C@H](C)CO)C[C@@H]2C)cc1,inactive,active,inactive
C[C@@H]1CN([C@@H](C)CO)C(=O)Cc2cc(NC(=O)Nc3cccc4ccccc34)ccc2O[C@H]1CN(C)C(=O)Nc1ccc(C(F)(F)F)cc1,inactive,inactive,inactive
COc1cccc(S(=O)(=O)Nc2ccc3c(c2)[C@H]2C[C@@H](CC(=O)NCCc4ccccc4)O[C@H](CO)[C@H]2O3)c1,active,inactive,inactive
C[C@@H]1CN([C@@H](C)CO)C(=O)c2cc(NS(C)(=O)=O)ccc2O[C@@H]1CN(C)Cc1ccc(C(=O)Nc2ccccc2N)cc1,inactive,inactive,inactive
COCCCNC(=O)[C@@]1(Sc2ccc(C)cc2)CC(=O)N(Cc2ccccc2C(F)(F)F)[C@@H]1c1ccc(CO)cc1,inactive,inactive,inactive
O=C(C[C@H]1C[C@@H]2c3cc(NC(=O)Nc4ccc(C(F)(F)F)cc4)ccc3O[C@@H]2[C@H](CO)O1)NCc1ccc(Cl)cc1,inactive,inactive,inactive
Cn1cnc(S(=O)(=O)N2C[C@@H](O)COC[C@@H]3O[C@@H](CC(=O)NCc4cc(F)cc(F)c4)CC[C@H]32)c1,inactive,inactive,inactive
C[C@@H]1CCCCO[C@@H](CN(C)Cc2ccc(C(F)(F)F)cc2)[C@H](C)CN([C@@H](C)CO)C(=O)c2cc(NC(=O)Nc3ccc(C(F)(F)F)cc3)ccc2O1,active,inactive,inactive
CCN(CC)c1ccc(CN)cn1,inactive,inactive,inactive
C[C@H]1CCCCO[C@H](CN(C)C(=O)CCC(F)(F)F)[C@@H](C)CN([C@@H](C)CO)C(=O)c2cc(NC(=O)Cc3ccccc3)ccc2O1,inactive,active,inactive
C[C@H](CO)N1C[C@H](C)[C@@H](CN(C)Cc2ccccc2)Oc2c(NS(=O)(=O)c3cn(C)cn3)cccc2C1=O,inactive,inactive,inactive
C[C@@H]1CCCCO[C@@H](CN(C)C(=O)Nc2ccc3c(c2)OCO3)[C@@H](C)CN([C@H](C)CO)C(=O)c2cc(NC(=O)C3CCCCC3)ccc2O1,inactive,inactive,inactive
COc1ccc(S(=O)(=O)Nc2cccc3c2O[C@H](CN(C)C(=O)Nc2c(C)noc2C)[C@@H](C)CN([C@@H](C)CO)C3=O)cc1,inactive,inactive,inactive
C[C@@H]1CCCCO[C@@H](CN(C)S(=O)(=O)c2ccc(Cl)cc2)[C@H](C)CN([C@H](C)CO)C(=O)c2cc(NC(=O)CCC(F)(F)F)ccc2O1,inactive,active,inactive
CC(C)C#Cc1ccc2c(c1)O[C@H](CN(C)C(=O)c1cnccn1)[C@@H](C)CN([C@H](C)CO)S2(=O)=O,inactive,inactive,inactive
CC(C)N1C(=O)NC(=O)[C@@H]1CC(=O)O,inactive,inactive,inactive
C[C@@H]1CCCCO[C@@H](CN(C)C(=O)Cc2ccccc2)[C@H](C)CN([C@H](C)CO)C(=O)c2cc(NC(=O)c3ccccc3)ccc2O1,inactive,inactive,inactive
FC(F)Oc1cccc2cccnc12,inactive,inactive,inactive
COc1ccc(S(=O)(=O)N(C)C[C@@H]2Oc3ccc(NS(=O)(=O)c4ccccc4)cc3CC(=O)N([C@@H](C)CO)C[C@@H]2C)cc1,inactive,inactive,inactive
C[C@H]1CN([C@@H](C)CO)C(=O)c2cc(-c3cccc(C#N)c3)cnc2O[C@H]1CN(C)C(=O)C1CCOCC1,inactive,inactive,inactive
C[C@@H]1CN([C@@H](C)CO)C(=O)Cc2cc(NC(=O)C3CCCCC3)ccc2O[C@@H]1CN(C)S(C)(=O)=O,inactive,inactive,inactive
CN(C)CC(=O)N[C@@H]1CC[C@@H](CCn2cc(CN(C)C)nn2)O[C@@H]1CO,inactive,inactive,inactive
COc1cccc(S(=O)(=O)N(C)C[C@@H]2Oc3ncc(C#Cc4cccc(F)c4)cc3C(=O)N([C@H](C)CO)C[C@@H]2C)c1,inactive,inactive,inactive
COCCOC(=O)N1C(=O)[C@@]2(c3cc(C#CC4=CCCCC4)ccc31)[C@H](c1ccc(OCCO)cc1)N1[C@H](c3ccccc3)[C@H](c3ccccc3)OC(=O)[C@H]1[C@@H]2C(=O)N1CCCCCCC1,inactive,inactive,inactive
COc1ccc([Si](C)(C)[C@@H]2[C@@H](CCO)O[C@]3(C(=O)N(Cc4ccc(N(C=O)c5ccccc5)cc4)c4ccccc43)[C@H]2C)cc1,inactive,active,inactive

Compound,cytotoxicity call (HSkMC),cytotoxicity call (HepG2),growth inhibition call (S. aureus RN4220)
C[C@@H]1CN([C@@H](C)CO)C(=O)Cc2cc(NC(=O)CCCN(C)C)ccc2O[C@H]1CN(C)C(=O)Nc1ccc(F)cc1,inactive,inactive,inactive
COc1ccc(S(=O)(=O)Nc2ccc3c(c2)C(=O)N([C@H](C)CO)C[C@H](C)[C@H](CN(C)C(=O)Nc2ccc(C(F)(F)F)cc2)OCCCC[C@@H](C)O3)cc1,inactive,inactive,inactive
CCCN(C)C[C@@H]1OCCCC[C@@H](C)Oc2ccc(NC(=O)Nc3ccccc3)cc2C(=O)N([C@H](C)CO)C[C@@H]1C,inactive,inactive,inactive
C[C@H](CO)N1C[C@H](C)[C@@H](CN(C)Cc2ccc(Oc3ccccc3)cc2)Oc2ccc(NC(=O)C3CC3)cc2CC1=O,inactive,inactive,inactive
CC(C)CC#Cc1ccc2c(c1)O[C@H](CN(C)C(=O)Cc1cccnc1)[C@H](C)CN([C@H](C)CO)S2(=O)=O,inactive,inactive,inactive
C[C@H]1CN([C@@H](C)CO)C(=O)Cc2cc(NC(=O)CCN3CCOCC3)ccc2O[C@H]1CN(C)C(=O)Nc1ccc2c(c1)OCO2,inactive,inactive,inactive
C[C@@H]1CN([C@H](C)CO)C(=O)c2cc(NC(=O)Cn3cnnn3)ccc2O[C@@H]1CN(C)C(=O)Nc1ccc2c(c1)OCO2,inactive,inactive,inactive
CCOC(=O)/C=C1\SC(=O)NC1=O,inactive,inactive,inactive
C[C@H](CO)N1C[C@H](C)[C@@H](CN(C)C(=O)C2CCCCC2)OCCCC[C@H](C)Oc2ccc(NC(=O)c3ccncc3)cc2C1=O,inactive,inactive,inactive
O=C(Nc1ccc(Br)cc1)c1ccc(N2C(=O)c3ccc(C(=O)Nc4ccc(Br)cc4)cc3C2=O)cc1,inactive,inactive,inactive
CC1=CC(=O)C(C(C)C)=CC1=O,inactive,inactive,inactive
C[C@@H]1CCCCO[C@@H](CN(C)S(C)(=O)=O)[C@H](C)CN([C@H](C)CO)C(=O)c2cc(NS(C)(=O)=O)ccc2O1,inactive,inactive,inactive
C[C@@H]1CCCCO[C@@H](CN(C)C(=O)Nc2ccc3c(c2)OCO3)[C@H](C)CN([C@H](C)CO)C(=O)c2cc(NS(=O)(=O)c3cccs3)ccc2O1,inactive,inactive,inactive
CCCCCCCCCCCCCCCCC(C(=O)O)C(O)(CC(=O)O)C(=O)O (stereo not given),inactive,inactive,inactive
COc1ccc(NC(=O)Nc2ccc3c(c2)CC(=O)N([C@H](C)CO)C[C@@H](C)[C@@H](CN(C)Cc2ccc(C(F)(F)F)cc2)O3)cc1,active,active,inactive
COc1ccc(S(=O)(=O)Nc2ccc3c(c2)CC(=O)N([C@H](C)CO)C[C@@H](C)[C@@H](CN(C)Cc2ccc(-c4ccccc4)cc2)O3)cc1,active,active,inactive
CO[C@H]1CN(C)C(=O)c2ccc(NS(C)(=O)=O)cc2OC[C@@H](C)N(C(=O)CN(C)C)C[C@H]1C,inactive,inactive,inactive
O=C(O)c1c[nH]ccc1=O,inactive,inactive,inactive
COc1ccccc1-c1ccc2c(c1)O[C@H](CN(C)CC1CCOCC1)[C@H](C)CN([C@@H](C)CO)S2(=O)=O,inactive,inactive,inactive
Cl.NCCc1ccc(O)c(O)c1,inactive,active,inactive
C[C@H](CO)N1C[C@H](C)[C@H](CN(C)S(=O)(=O)c2ccc(C#N)cc2)OCc2cnnn2CCCC1=O,inactive,inactive,inactive
CC1NC(=O)C2CCCN2C(=O)C(CC(N)=O)NC(=O)C2CSSCC(N)C(=O)NC3CSSCC(NC1=O)C(=O)NC(C(C)O)C(=O)NCC(=O)NC(C(=O)NC(Cc1ccc(O)cc1)C(=O)O)CSSCC(NC(=O)C(Cc1ccc(O)cc1)NC(=O)C(CCC(=O)O)NC3=O)C(=O)N2 (stereo not given),inactive,inactive,inactive
CC(C)(O)[C@@H](O)Cc1cc(O)ccc1O[C@H]1O[C@@H](CO)[C@@H](O)[C@@H](O)[C@@H]1O,inactive,inactive,inactive
COc1ccc2c3c(n(c2c1)C)[C@H](CO)N(C[C@]13CCN(CC1)S(=O)(=O)c1ccccc1)C(=O)c1cccnc1,inactive,inactive,inactive
C[C@H]1CN([C@@H](C)CO)C(=O)Cc2cc(NS(=O)(=O)c3cn(C)cn3)ccc2O[C@H]1CN(C)S(=O)(=O)c1ccc(F)cc1,inactive,inactive,inactive
C[C@@H]1CN([C@@H](C)CO)C(=O)c2cc(N(C)C)ccc2O[C@@H](C)CCCCO[C@H]1CN(C)S(=O)(=O)c1cn(C)cn1,inactive,inactive,inactive
C[C@H](CO)N1C[C@H](C)[C@H](CN(C)S(=O)(=O)c2cccs2)Oc2c(NS(C)(=O)=O)cccc2C1=O,inactive,inactive,inactive
